Where a name gives a salt, the structure may show the parent alone. This is one part of the list. Most values come without repeats; read them as rough.
test system: Beas-2B AQP5-HiBiT reporter cells; assay: AQP5-HiBiT luminescence relative to vehicle (ratio to vehicle); higher = higher AQP5-HiBiT protein abundance; conditions: 10 µM; 18 h
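Also: monoclonal Beas-2B line stably carrying CMV promoter-driven AQP5-HiBiT, 5,000 cells per well in 384-well plates, lytic HiBiT plus LgBiT NanoLuc luminescence, FDA-approved drug library screen.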

Row | SMILES | AQP5-HiBiT luminescence
1 | CC[C@H]1OC(=O)[C@H](C)[C@@H](O[C@H]2C[C@@](C)(OC)[C@@H](O)[C@H](C)O2)[C@H](C)[C@@H](O[C@@H]2O[C@H](C)C[C@H](N(C)C)[C@H]2O)[C@](C)(O)C[C@@H](C)C(=O)[C@H](C)[C@@H](O)[C@]1(C)O [Erythromycin] | 0.828
2 | Nc1ccc(S(=O)(=O)NC(=O)c2ccccc2)cc1 [Sulfabenzamide] | 1.03
3 | CN1CC(=O)N2[C@H](c3ccc4c(c3)OCO4)c3[nH]c4ccccc4c3C[C@@H]2C1=O [Cialis] | 1.16
4 | O=P(O)(O)C(O)(Cc1cccnc1)P(=O)(O)O [Risedronate Sodium] | 1.22
5 | NC[C@H]1O[C@H](O[C@H]2[C@H](O)[C@@H](O[C@H]3O[C@H](CO)[C@@H](O)[C@H](N)[C@H]3O)[C@H](N)C[C@@H]2N)[C@H](N)C[C@@H]1O [Tobramycin] | 1.09
6 | CCc1c2c(nc3ccc(OC(=O)N4CCC(N5CCCCC5)CC4)cc13)-c1cc3c(c(=O)n1C2)COC(=O)[C@]3(O)CC [Irinotecan Hydrochloride] | 0.701
7 | CCCCc1oc2ccccc2c1C(=O)c1cc(I)c(OCCN(CC)CC)c(I)c1 [Amiodarone hydrochloride] | 1.23
8 | CCCc1cc(=O)[nH]c(=S)[nH]1 [Propylthiouracil] | 1.05
9 | CCN1CCN(C(=O)N[C@@H](C(=O)N[C@@H]2C(=O)N3[C@@H]2SC(C)(C)[C@@H]3C(=O)O)c2ccccc2)C(=O)C1=O [Piperacillin sodium salt] | 1.08
10 | CC1=CC(=O)c2ccccc2C1=O [Menadione] | 1.12
11 | C[C@@H](O[C@H]1OCCN(Cc2n[nH]c(=O)[nH]2)[C@H]1c1ccc(F)cc1)c1cc(C(F)(F)F)cc(C(F)(F)F)c1 [Aprepitant] | 1.16
12 | COC(c1ccccc1)(c1ccccc1)[C@H](Oc1nc(C)cc(C)n1)C(=O)O [Ambrisentan] | 0.752
13 | COC(=O)[C@H](c1ccccc1Cl)N1CCc2sccc2C1 [Clopidogrel] | 1.08
14 | Cc1nc(Nc2ncc(C(=O)Nc3c(C)cccc3Cl)s2)cc(N2CCN(CCO)CC2)n1 [Dasatinib] | 0.298
15 | CNCCCC12CCC(c3ccccc31)c1ccccc12 [Maprotiline hydrochloride] | 1.34
16 | COCCCC/C(=N\OCCN)c1ccc(C(F)(F)F)cc1 [Fluvoxamine maleate] | 1.15

Row | SMILES | AQP5-HiBiT luminescence
17 | C[C@@H]1O[C@@H]1P(=O)(O)O [Fosfomycin calcium] | 0.744
18 | CC(=O)S[C@@H]1CC2=CC(=O)CC[C@]2(C)[C@H]2CC[C@@]3(C)[C@@H](CC[C@@]34CCC(=O)O4)[C@H]12 [Abbolactone] | 0.827
19 | CN(C)c1ccc(O)c2c1C[C@H]1C[C@H]3[C@H](N(C)C)C(O)=C(C(N)=O)C(=O)[C@@]3(O)C(O)=C1C2=O [Minocycline hydrochloride] | 0.45
20 | CCn1cc(C(=O)O)c(=O)c2cc(F)c(N3CCNCC3)nc21 [Enoxacin] | 0.688
21 | O=C(O)c1cn(C2CC2)c2cc(N3CCNCC3)c(F)cc2c1=O [Ciprofloxacin] | 1.26
22 | CCCCC1=NC2(CCCC2)C(=O)N1Cc1ccc(-c2ccccc2-c2nnn[nH]2)cc1 [Irbesartan] | 0.766
23 | CC(=O)OCC(=O)[C@@]12OC3(CCCC3)O[C@@H]1C[C@H]1[C@@H]3CCC4=CC(=O)C=C[C@]4(C)[C@@]3(F)[C@@H](O)C[C@@]12C [Amcinonide] | 0.874
24 | Cc1cn[nH]c1 [4-Methylpyrazole] | 0.643
25 | S=c1[nH]cnc2nc[nH]c12 [6-Mercaptopurine monohydrate] | 1.32
26 | CC(CN(C)C)CN1c2ccccc2Sc2ccccc21 (stereo unspecified) [Trimeprazine tartrate] | 2.31
27 | CC(C)OC(=O)CCC/C=C\C[C@@H]1[C@@H](CC[C@@H](O)CCc2ccccc2)[C@H](O)C[C@@H]1O [Latanoprost] | 0.794
28 | Clc1ccc2nsnc2c1NC1=NCCN1 [Tizanidine hydrochloride] | 0.639
29 | COc1ccc2[nH]c([S+]([O-])Cc3ncc(C)c(OC)c3C)nc2c1 (stereo unspecified) [Omeprazole] | 0.841
30 | C[C@@](Cc1ccc(O)c(O)c1)(NN)C(=O)O [Carbidopa Hydrate] | 0.606
31 | CNC(=O)c1cc(Oc2ccc(NC(=O)Nc3ccc(Cl)c(C(F)(F)F)c3)cc2)ccn1 [Sorafenib tosylate] | 0.246
